Test results from PubChem BioAssay AID652104 (National Center for Advancing Translational Sciences (NCATS), 2013).
In all, about 410,000 compounds went through this assay and about 7,200 (1.8%) were called active. Inconclusive results, whose numbers are uncertain, are shown with a selection of clear calls. Calls come from the whole dose curve; as a rule, active = well fitted activation curve with a large enough effect; inconclusive = small, poorly fitted or top-dose-only effect, or another doubt; inactive = no such curve, though single readings can be large or run the other way. Potencies of inconclusive entries are left out as doubtful fits.

Assay: qHTS of TDP-43 Inhibitors; note: nearly all actives have a fitted effect of over 50% in size
Conditions: TDP-43 expressing yeast growth rescue, BacTiter-Glo, 24 h; series mostly up to 46.1 µM
How it was run: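 Cell-based yeast growth screen: TDP-43 expression induced in galactose, inoculum OD600=0.02 after raffinose pregrowth to mid-log. Read-out BacTiter-Glo luminescence at 24 hr, 30 deg C; inhibition of toxicity seen as signal increase.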
Potency is the fitted concentration of half-maximal effect; tags give direction and shape of the fitted curve.

SMILES | Potency
Cc1ccc(NC(=S)N2CCC(c3nc4ccccc4s3)CC2)cc1 | inconclusive [activator, single point]
S=C(NC1CCCC1)N1CCN(c2ccc(Cl)cc2)CC1 | inconclusive [activator, single point]
O=C(c1cc([N+](=O)[O-])ccc1Cl)N1CCN(c2ccc([N+](=O)[O-])cc2)CC1 | inconclusive [activator, partial curve]
COc1ccc2oc(C(=O)OCC(=O)N(C)C3CCS(=O)(=O)C3)c(C)c2c1 (centres undefined) | inactive
COc1ccc(NC(=O)Cn2c(=O)n(Cc3nc(-c4ccccc4)no3)c(=O)c3cc4c(cc32)OCO4)c(OC)c1 | inactive
CCCc1cc(C(=O)Nc2sc3c(c2C(=O)OCC)CCCC3)no1 | inconclusive [activator, partial curve]
Cc1cc(SCC(=O)c2ccc(O)c(O)c2)nc2ccccc12 | active: 22.4 µM
COc1ccc(N2CCN(C(=O)CC34CC5CC(CC(C5)C3)C4)CC2)c([N+](=O)[O-])c1 | inconclusive [activator, partial curve]
COc1ccc(-c2cc3ccc(O)c(CN4CCC(C)CC4)c3oc2=O)cc1 | inactive
Cc1cccc(-c2nc3scc(CCNS(=O)(=O)c4ccc(Oc5ccccc5)cc4)n3n2)c1 | inactive
Cc1ccc(-c2csc3ncnc(N4CCN(S(=O)(=O)c5ccc(C#N)cc5)CC4)c23)cc1 | inconclusive [activator, partial curve, poor fit]
CCOC(=O)C1=C(C)OC(N)=C(C#N)C1c1c(C)nn(-c2ccccc2)c1Cl (centres undefined) | inconclusive [activator, partial curve, poor fit]
CC(=O)N1CCN(c2nc3ccc(Br)cc3s2)CC1 | inconclusive [activator, partial curve]
Cc1nn(-c2ccccc2)c(-n2cccc2)c1C(=O)NCCc1ccc(Cl)cc1 | inactive
COc1ccc2c(c1)C(=NN)c1cc(OC)ccc1-2 | inconclusive [activator, single point]
COc1cccc(CNc2nc3cc(-c4ccccc4C)sc3c(=O)n2C)c1OC | inconclusive [activator, full curve]
O=C(CCl)N(c1ccccc1)c1ccccc1 | active: 17.8 µM
Nc1ncnc2oc(-c3ccco3)c(-c3ccco3)c12 | inactive
N#Cc1ncc(C(F)(F)F)cc1Sc1ccccc1N | inconclusive [activator, partial curve]
O=C(c1noc2c1CCCC2)N1CCN(c2ccccc2)CC1 | inactive
COc1ccc(/C=C\C(=O)CC(O)(c2ccccc2)C(F)(F)F)cc1 (centres undefined) | inconclusive [activator, single point]
c1ccc(N2CCN(Cc3cccn3-c3nnc(N4CCN(C5CCCCC5)CC4)s3)CC2)cc1 | inconclusive [activator, partial curve]

SMILES | Potency
Cc1sc(NC(=O)c2ccco2)c(C(c2cccnc2)N2CCC(C)CC2)c1C (centres undefined) | inconclusive [activator, single point]
O=C(CN1CCN(Cc2cccc(Cl)c2)C1=O)NCc1ccc(F)cc1 | inconclusive [activator, partial curve]
c1ccc(-c2cnc(-c3ccccc3)nn2)cc1 | inactive
CCC/C=C/c1ccc(CN2C(CC(C)C)C(=O)N(Cc3cn(CCC4OCCCO4)nn3)CCS2(=O)=O)cc1 (centres undefined) | inconclusive [activator, single point]
COc1ccc(C2CC(=O)N(Cc3ccc(F)cc3)c3ccccc3S2)cc1OC (centres undefined) | inconclusive [activator, single point]
COc1ccccc1C(=O)NCCn1cc(SCc2ccc(C)cc2)c2ccccc21 | inactive
COc1ccc(OC)c2sc(N3CCN(C(=O)c4ccc5c(c4)CCCC5)CC3)nc12 | inconclusive [activator, partial curve]
Cc1ccc(Cc2cnc(N3C(=N)SC(C)C3=O)s2)cc1 (centres undefined) | inconclusive [activator, partial curve]
COc1ccc(-c2cc3ccc(OC)cc3cn2)cc1 | inconclusive [activator, partial curve]
COc1ccc(OCCCC(=O)ON=C(N)c2ccccc2C)cc1 | inconclusive [activator, single point]
Cc1cc(C)c2c(-n3cccc3)c(C(=O)NNS(=O)(=O)c3ccc(Br)cc3)sc2n1 | inconclusive [activator, single point]
O=C(CCCc1ccccc1)Nc1ccc2c(c1)OCCO2 | inconclusive [activator, partial curve]
COc1ccc(CCNc2nc3ccccc3n3nnnc23)cc1OC | inconclusive [activator, full curve, poor fit]
CCc1ccc(NC(=O)CSc2nc(-c3ccccc3Cl)nc3c2Cc2c(CO)cnc(C)c2O3)cc1 | inactive
COc1ccccc1CNC(=O)C1=C(C)C(=O)OC12CCC(C)CC2 (centres undefined) | inconclusive [activator, single point]
Cc1ccc(S(=O)(=O)N2CCN(C(=O)CSc3ccc(Cl)cc3)CC2)cc1 | inconclusive [activator, single point]
CCOc1cc(N2CCOCC2)c(OCC)cc1NC(=O)c1ccc(C)s1 | inconclusive [activator, single point]
O=C1c2ccccc2NC2CCCCCN12 (centres undefined) | inactive
O=C(NNS(=O)(=O)c1ccc([N+](=O)[O-])cc1)c1ccccc1 | inconclusive [activator, single point]
O=C(Nc1ccon1)c1ccc(OC2CCCC2)cc1 | inconclusive [activator, partial curve]
Cc1cc(C)cc(NC(=O)c2ccc3c(c2)nnn3C2CCCC2)c1 | inactive
C=C1CCC2C(C)(C)[C@@H](O)CC[C@@]2(C)[C@@H]1COc1ccc2ccc(=O)oc2c1 (some centres undefined) | inactive
